# Reference: the BET-seq Pho4 binding data (Le et al. 2018)
# This is one part of the list. These are noisy estimates, calculated here from bound and input reads.
# Target: T1, Pho4 (S. cerevisiae) (UniProt P07270)
# T1 sequence: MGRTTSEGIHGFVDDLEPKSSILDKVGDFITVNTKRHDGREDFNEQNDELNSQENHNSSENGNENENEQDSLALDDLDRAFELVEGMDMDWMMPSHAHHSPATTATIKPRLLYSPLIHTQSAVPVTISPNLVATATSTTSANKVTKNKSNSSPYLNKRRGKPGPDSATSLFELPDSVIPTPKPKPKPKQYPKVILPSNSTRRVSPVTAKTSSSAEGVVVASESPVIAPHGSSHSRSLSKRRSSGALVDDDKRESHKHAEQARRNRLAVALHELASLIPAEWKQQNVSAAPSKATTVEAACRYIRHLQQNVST
# Test: relative binding free energy (BET-seq); higher = weaker binding
# Conditions: reference: library average
row,Sequence,relative binding free energy [kJ/mol]
1,TGGAGCACGTGATAGA,0.628
2,GTAAGCACGTGTGAGG,-0.167
3,TGTGGCACGTGATAGC,-0.628
4,TTGTTCACGTGGACCG,1
5,AATTCCACGTGAGTGG,1.17
6,CTTAGCACGTGGAGTT,-0.0837
7,CGGCGCACGTGTGGGT,-0.377
8,AATGGCACGTGAGTGC,0.753
9,TATAGCACGTGTGAAG,0.418
10,GTTATCACGTGGTAGT,0.962
11,GGATGCACGTGGTGCC,-0.293
12,ATAAACACGTGGTGTG,-0.879
13,GGGTACACGTGGTTAT,-0.167
14,TGTTGCACGTGAGGGC,0.586
15,TGGGTCACGTGGCTAT,0.293
16,GGGTGCACGTGACGAG,0.293
17,TAGGGCACGTGATTGT,-0.167
18,ATGACCACGTGGTTTA,-0.0418
19,AAGGTCACGTGGAAGG,0.879
20,AGATGCACGTGCAGGT,-0.795
21,TTCGGCACGTGGAAGT,0.251
22,TGGGTCACGTGACTTG,1.17
23,GGGCACACGTGGGGTA,-0.418

row,Sequence,relative binding free energy [kJ/mol]
1,AGTAACACGTGGATAT,0.502
2,AGGGTCACGTGTTGAC,0.544
3,GTATGCACGTGATATG,0.251
4,CGAGTCACGTGGGTTG,0
5,GTGTGCACGTGAGATG,0.669
6,TGCGGCACGTGCATGG,-1.21
7,GGGTGCACGTGTATGG,0.126
8,TATCGCACGTGCGTGG,-0.544
9,ATGGTCACGTGCATTT,0.418
10,TATTGCACGTGTATTT,0.126
11,CATGACACGTGAGTGT,0.795
12,AGGGACACGTGGTATT,0.377
13,TTATTCACGTGGTGCT,0.669
14,GGTGACACGTGGCAGG,-1.05
15,TGTGGCACGTGCTTTT,-0.293
16,AGAAACACGTGACGGG,1.26
17,CAGTTCACGTGGTTTG,0.502
18,CAGGGCACGTGGTGAT,-0.837
19,AGATTCACGTGTTGTA,0.753
20,GATCGCACGTGGGGCG,-0.209
21,GGTTACACGTGAGACG,1.21
22,TTGCACACGTGGGGCT,-0.209
23,TTAGGCACGTGGCGTC,-1

row,Sequence,relative binding free energy [kJ/mol]
1,TTTCACACGTGCGTAT,0.711
2,TAGGGCACGTGCGAAT,0
3,GAGTACACGTGGGTAT,0.377
4,TGGGACACGTGGAGAC,0.418
5,CGGGACACGTGGAGGT,0
6,TGGTGCACGTGGGAAT,0
7,TGTATCACGTGGGTTG,-0.293
8,TTTAACACGTGACTTG,0.251
9,GGAGTCACGTGGAGTC,1.26
10,CTAAGCACGTGGAGGG,-0.879
11,TGAGTCACGTGGGACG,0.586
12,GAAAACACGTGTGGGG,-0.126
13,TCGGGCACGTGTTTGT,-0.209
14,TGGAACACGTGTCTTG,0
15,GAAGGCACGTGAGAGG,0.92
16,GTCATCACGTGGTGGA,0.962
17,TGAGGCACGTGTCTTT,-0.126
18,TTGGTCACGTGGTCCT,0.418
19,AAGTCCACGTGTGTGG,0.0418
20,TGTATCACGTGAGCTG,1.72
21,GTTTGCACGTGTGACG,0.251
22,TTGGACACGTGGTTGC,0.0837
23,GTGTTCACGTGTAATC,0.962

row,Sequence,relative binding free energy [kJ/mol]
1,TGTATCACGTGTCGTT,1.05
2,TTAGTCACGTGTTCTA,0.126
3,TAGTGCACGTGTTGGA,0.251
4,AGTCCCACGTGAGGGG,0.795
5,GGATGCACGTGAGGGG,1.3
6,GTTAACACGTGGGATT,0.0418
7,CACTTCACGTGGGGGT,0.502
8,AGTCTCACGTGAGGCT,1.3
9,TCTGTCACGTGGAGTG,0.0418
10,ATGGTCACGTGTCTTG,0.335
11,CTCGTCACGTGAGGTT,0.586
12,GTCGGCACGTGTGAAG,-0.0837
13,TGTTTCACGTGATAGA,1.34
14,GTTATCACGTGTCCGT,1
15,TTAGGCACGTGGTCGT,-0.795
16,TTTGCCACGTGGGTTA,-0.92
17,GGCGGCACGTGTTTAT,0.251
18,GAGGGCACGTGAGTGC,0.628
19,CAAAGCACGTGTTGGG,-0.377
20,CTGGTCACGTGGTGGC,0.126
21,ATTAACACGTGTTGTG,0.209
22,TTCTGCACGTGGGTTC,-0.628
23,ATGGCCACGTGATGTG,0.209

row,Sequence,relative binding free energy [kJ/mol]
1,CAGATCACGTGGAGGG,0.293
2,ATAATCACGTGATTTG,0.962
3,AACGACACGTGGGTGG,-0.586
4,TTTGACACGTGAGGGA,0.711
5,CTGGACACGTGTTTTT,1.09
6,CTTGTCACGTGTGGAC,0.837
7,ATGGTCACGTGTCATT,0.377
8,GGTGCCACGTGTTTAA,0.293
9,GTTGACACGTGTGTTC,0.251
10,TGGAACACGTGATAGG,0.502
11,GGGTACACGTGCGAGG,0.335
12,TGAGACACGTGAGATG,0.711
13,GAGTTCACGTGGTCGT,1.34
14,TAAGTCACGTGAAGGG,1.67
15,CGTGGCACGTGAGTGA,0.251
16,TTATGCACGTGAGTAG,1.21
17,TGGTACACGTGAGCGA,1.13
18,TGTCACACGTGTGGTC,0.502
19,GGTTACACGTGGTATT,0.0837
20,GGAAGCACGTGGGGCT,-0.92
21,GTTTGCACGTGTTCGT,0.628
22,CAGGTCACGTGTGTGC,0.126
23,CTTTACACGTGGGTAT,-0.209
